# Results taken from the supplement of paper PMC3334620.
# The full ranking holds about 33,000 sequences; the median of “E-score (-0.5 to 0.5)” is about -0.012, and the highest 2% start at about 0.27. Some of the results follow.
# Target: T1, Vhr1 (UniProt P40522)
# T1 sequence: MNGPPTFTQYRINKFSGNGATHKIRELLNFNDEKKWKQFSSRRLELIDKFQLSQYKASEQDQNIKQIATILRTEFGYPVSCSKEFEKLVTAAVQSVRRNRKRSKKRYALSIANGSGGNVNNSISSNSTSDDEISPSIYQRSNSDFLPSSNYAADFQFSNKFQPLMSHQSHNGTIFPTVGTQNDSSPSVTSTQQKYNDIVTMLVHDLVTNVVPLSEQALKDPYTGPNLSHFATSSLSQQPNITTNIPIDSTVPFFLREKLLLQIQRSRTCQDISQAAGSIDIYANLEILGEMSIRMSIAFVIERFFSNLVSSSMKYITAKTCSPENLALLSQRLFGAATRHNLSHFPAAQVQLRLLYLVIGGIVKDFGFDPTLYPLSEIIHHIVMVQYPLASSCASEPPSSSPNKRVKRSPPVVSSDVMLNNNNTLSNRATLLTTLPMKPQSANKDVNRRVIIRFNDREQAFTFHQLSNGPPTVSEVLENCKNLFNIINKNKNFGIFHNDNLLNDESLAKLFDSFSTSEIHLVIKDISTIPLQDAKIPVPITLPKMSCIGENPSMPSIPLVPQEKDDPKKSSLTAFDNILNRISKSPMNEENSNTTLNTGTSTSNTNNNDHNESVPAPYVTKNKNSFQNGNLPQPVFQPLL
# Experiment: PBM E-score (8-mer binding enrichment) (E-score (-0.5 to 0.5)); higher = stronger / more preferred TF binding; most listed sequences are background and not binding sites
# Details: protein concentration: 200 nM; construct: GST-full length
# How it was run: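 Masliner-normalised scans of fluorescent anti-GST signal were the basis for scoring. That signal came from GST-tagged yeast transcription factors applied at about 100-200 nM to double-stranded universal all-10-mer Agilent arrays on fresh or once-stripped slides. Each ungapped eight-base word, pooled with its reverse complement, received an E-score from the Universal PBM Analysis Suite.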
row,Sequence,PBM E-score
1,GTTTAACA,-0.143
2,GAACAGGA,-0.0169
3,AGTGATAC,0.237
4,ATGTCTAA,-0.0254
5,CCTCCACA,-0.00904
6,CAAGTTGC,-0.109
7,ATATACCA,0.0472
8,ATTAATGG,0.112
9,GCTGAGTA,0.0378
10,ACTCGTAC,0.125
11,GGCTAACA,-0.0545
12,ATACCGAC,0.066
13,CCAACTGG,0.00035
14,ATTAACTA,0.0964
15,AAATATAC,-0.0212
16,CGACCAAA,0.0304
17,CGTATGGA,-0.0114
18,AACTAGTT,-0.125
19,GTTCTCCA,-0.111
20,TAGGTGGA,0.00371
21,CCATATAG,0.0114
22,GGATCATA,0.113
23,ATCGAATG,0.0677
24,CTATGTAA,0.0968
25,CGATCCAA,-0.0793

row,Sequence,PBM E-score
1,AGCACTAT,0.0206
2,CACACTTA,0.0546
3,GAGGAGTA,-0.0872
4,GCAACGTA,-0.116
5,AGTGGCTG,0.172
6,AGGCCTGA,0.057
7,AGTCTATC,-0.0607
8,CCCTTAAG,-0.177
9,GGTGAACC,0.0932
10,CTCGTGGC,0.0253
11,CCCCGATA,-0.0655
12,CCTAAGTA,-0.0946
13,AACGGCCT,-0.166
14,AGTTAGAA,-0.106
15,CCGGTGTA,0.0823
16,CTAAAAGA,-0.0922
17,AATAACGC,-0.123
18,ACAACATC,-0.049
19,TATATTGA,0.163
20,ATCCGATC,0.208
21,GCTTATCA,0.129
22,CGCTCGTC,-0.213
23,ACTGCACG,0.145
24,GTTCTAAA,-0.164
25,CGGAGTTA,0.111

row,Sequence,PBM E-score
1,TCGAGGAA,-0.233
2,CCCCGAGA,-0.151
3,AACACTTG,-0.0756
4,GCCTACAA,-0.00036
5,ACGTTTCC,-0.257
6,CGTCCGCA,-0.0416
7,GATGATTA,0.337
8,CGCTCCAA,-0.121
9,AAAGCTGC,-0.0868
10,ACCGGGCA,-0.151
11,ATGCCTCG,0.0771
12,CATAAGAG,0.0228
13,AGAAGCTC,-0.238
14,AACGGTGG,-0.15
15,AGAGAGGG,-0.217
16,CATGCAGC,0.125
17,GGAGTGCC,-0.124
18,GCCCGACA,0.22
19,CGCGTCCG,0.103
20,ACGATGAC,0.201
21,AACCGATG,0.0505
22,ATCTTCCC,-0.0634
23,CCAAGATC,-0.0828
24,GTCAATCA,0.221
25,AAATGTCT,-0.0752

row,Sequence,PBM E-score
1,AATGAGCC,-0.00477
2,CGACCCCC,-0.261
3,GAGGTCAC,0.00149
4,ACCGGTGG,-0.19
5,CCACAGAC,0.027
6,GGACTCAC,0.372
7,TAATCACA,0.222
8,ACGAAAGC,-0.156
9,ATGAACCG,0.0189
10,ACCTTAAG,-0.186
11,CCCCGAAA,-0.131
12,AATCGTCG,0.138
13,ACGTTGAC,0.0527
14,CAAGGCGG,0.0629
15,AGAAGCTA,-0.0653
16,ATACCCAA,0.00553
17,AATGGCAC,-0.0953
18,GTCCCCAA,0.0184
19,GCAGGTAA,-0.116
20,AATGCGCG,0.193
21,GTGGTAGA,-0.092
22,CTCGCGCA,-0.0905
23,ACACGCCT,-0.0326
24,ATCTGCTA,-0.0634
25,AATGACCG,0.0377

row,Sequence,PBM E-score
1,CCGTCGAC,0.0775
2,GCTGATAC,0.0137
3,CCCCAGGA,-0.0514
4,ACTGTGTG,0.261
5,AACCTAGT,0.0742
6,ATTTTTAC,-0.263
7,CGTCTATA,0.00266
8,ACAGTAGT,0.211
9,GCGTAGAA,-0.0539
10,CACGACCC,0.0607
11,CCGTCAGA,-0.117
12,CCGCCGGC,-0.0261
13,CTTTCCCC,-0.0508
14,ACTGAAAC,0.195
15,ACACAAAA,-0.0345
16,ATGTTGTA,0.11
17,AGCTGCTG,0.0783
18,CATATAGA,0.189
19,ATCTGGTG,0.13
20,ATGCCCAA,-0.161
21,ACGCGATC,0.0331
22,AGTCTGAT,0.132
23,CGAGGACA,-0.0952
24,GAGACACC,0.151
25,GCCGATGA,0.12

row,Sequence,PBM E-score
1,GGCTTCAC,-0.178
2,AAGTGTGT,0.0443
3,GGAAAGGA,-0.0683
4,GACCTAAC,0.109
5,AACGCCGG,0.00627
6,CTAAACGA,-0.157
7,CTTCTCGA,-0.171
8,ACCCACCT,0.0548
9,AGTCGAAT,0.113
10,AGGTGGGC,-0.106
11,AACCGTTC,-0.0164
12,CCTGTCAC,-0.008
13,TATAACAA,0.154
14,ATTTCGTC,0.0081
15,CCCGAGGG,-0.0668
16,GTGAAGTA,-0.185
17,AATGAGAA,-0.264
18,CCTGTACC,-0.0168
19,CCGACAAC,0.0395
20,CGTCACAG,0.152
21,ACGCACAC,0.199
22,AGTGTGAT,0.296
23,ATAAGCGA,-0.0341
24,ATTGCACA,0.0916
25,CGCACGAC,-0.00874

row,Sequence,PBM E-score
1,CGGGGAGC,-0.0465
2,GAGAAGTA,-0.164
3,CTCCCAGA,-0.222
4,GCCATGGC,-0.00308
5,ACAGAAGC,-0.00183
6,AGCACCCA,-0.0539
7,ATACGAAC,0.0953
8,GAGGGGGA,-0.206
9,AGTTCCTA,-0.101
10,ATCATGTG,0.204
11,AACTTAGT,-0.0782
12,ATAATGCG,-0.0118
13,GGCTCCCC,-0.00864
14,CGGGATAC,0.132
15,ACTGATCG,0.0591
16,GCCTGGGA,-0.0341
17,AAACTACA,0.0884
18,CATCGAAC,-0.00391
19,ACGGCAGA,-0.0778
20,GCACGGTA,-0.119
21,CTGACTCC,0.47
22,CTCTTAAC,-0.119
